From PubChem BioAssay AID624417 (National Center for Advancing Translational Sciences (NCATS), 2012)
Among all 410,000 compounds or so, about 6,400 (1.6%) were called active. The inconclusive results got no clear call from the source; some entries with a clear call stand among them for comparison. The call rests on the fitted dose curve; in most records, active means well fitted inhibition curve with a large enough effect; inconclusive means small, poorly fitted or top-dose-only effect; inactive means no such curve, though single readings can be large or run the other way. Potencies of inconclusive entries are left out as doubtful fits.

These compounds were tested against Glucagon-like peptide 1 receptor (Homo sapiens) (UniProt P43220) (assay: qHTS of GLP-1 Receptor Inverse Agonists (Inhibition Mode)). Conditions: HEK293 GLP-1R CRE-luciferase, luminescence, 24 h, GLP-1R form is constitutively active; activity change, negative = inhibition: at 38.3 µM (top of the series) unless noted.
Method in brief: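 HEK293 cells stably co-expressing constitutively active GLP-1R and a cAMP-responsive luciferase reporter were seeded in DMEM with 10% Nu serum, given compounds after 12 h, and incubated 24 h at 37 deg C. Luminescence was then read.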
Further: nearly all actives have a fitted effect of over 55% in size.
On the % scale 0 is the no-effect control and ±100 the full control effect; potency means the concentration at half of the fitted maximal effect; tags describe the fitted curve by direction and shape.

Chain of UniProt P43220 (P43220 whole entry, looked up): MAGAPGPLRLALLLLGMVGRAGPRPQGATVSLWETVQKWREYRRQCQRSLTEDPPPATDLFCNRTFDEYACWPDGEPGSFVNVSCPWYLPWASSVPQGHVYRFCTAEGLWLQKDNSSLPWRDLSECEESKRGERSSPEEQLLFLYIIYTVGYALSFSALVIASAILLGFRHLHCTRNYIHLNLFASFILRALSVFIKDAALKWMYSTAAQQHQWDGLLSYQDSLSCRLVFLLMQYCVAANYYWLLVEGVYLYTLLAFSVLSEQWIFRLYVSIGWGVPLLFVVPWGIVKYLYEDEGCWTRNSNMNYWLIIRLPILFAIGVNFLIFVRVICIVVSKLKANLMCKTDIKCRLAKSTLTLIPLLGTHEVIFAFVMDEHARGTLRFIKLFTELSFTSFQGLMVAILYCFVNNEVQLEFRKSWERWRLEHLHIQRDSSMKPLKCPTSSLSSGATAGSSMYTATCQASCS

| SMILES | activity change, negative = inhibition | Potency |
| --- | --- | --- |
| O=C(NCC1CC1)NC(=O)c1ccccc1F | inactive: 19.8% | – |
| COC(=O)C1=C(CSc2nc3ccccc3o2)NC(=O)NC1c1cc(C)ccc1C (configuration not stated) | – | inconclusive [inhibitor, partial curve, poor fit] |
| CCOc1ccc(CC2S/C(=N/N=C/c3ccco3)NC2=O)cc1 (configuration not stated) | inactive: -11.7% | – |
| COc1cccc(-n2ccnc2SCC(=O)Nc2ccccc2)c1 | – | inconclusive [inhibitor, single point] |
| COc1cc2c(cc1NC(=O)CN(C)Cc1cccc(OC)c1OC)oc1ccccc12 | – | inconclusive [inhibitor, partial curve] |
| O=C(/C=C/Sc1ccccc1)c1ccccc1 | inactive: 22.2% | – |
| CCc1ccc(-c2csc3ncn(CC(=O)NCc4ccco4)c(=O)c23)cc1 | – | inconclusive [inhibitor, partial curve] |
| COc1ccc(N/N=C(/C(C)=O)N2CCCc3ccccc32)cc1 | – | inconclusive [inhibitor, partial curve, poor fit] |
| COc1ccc(-c2[nH]ncc2CN2CCC(O)(c3ccc(Cl)cc3)CC2)cc1 | – | inconclusive [inhibitor, partial curve, poor fit] |
| COc1cccc(-c2cnc(C(O)c3cc(Cl)cc(Cl)c3)[nH]2)c1 (configuration not stated) | – | inconclusive [inhibitor, single point] |
| CN(C)/C=C1\Oc2ccc3ccccc3c2C1=O | inactive: 63.3% | – |
| NS(=O)(=O)c1ccc(CNC(=O)c2cccc(Oc3ccccc3)c2)cc1 | – | inconclusive [inhibitor, partial curve, poor fit] |
| O=C1[C@@H](Oc2ccccc2)[C@@H](c2ccncc2)N1c1ccccc1 | – | inconclusive [inhibitor, partial curve] |
| COc1ccc(NCc2cc3cc4c(cc3n(CC(=O)Nc3ccc(C)cc3)c2=O)OCO4)cc1 | inactive: -11.9% | – |
| CC(=O)c1c(C)n(-c2ccccc2Br)c2ccc(O)cc12 | – | inconclusive [inhibitor, single point] |
| CC(=O)Oc1ccc(C(=O)Nc2cc(NC(=O)c3ccc(OC(C)=O)cc3)cc(C(=O)NC(C)(C)C)c2)cc1 | – | inconclusive [inhibitor, single point] |
| CC(NC(=O)Nc1ccccc1C(F)(F)F)c1c(-n2cccc2)sc2c1CCCC2 (configuration not stated) | – | inconclusive [inhibitor, full curve, poor fit] |
| Fc1ccc(-c2nnc3sc(C4COc5ccccc5O4)nn23)cc1 (configuration not stated) | – | inconclusive [inhibitor, single point] |
| Cc1csc(NC(=O)CSc2ccc(-c3ccccc3)nn2)n1 | – | inconclusive [inhibitor, single point] |
| CCOC(=O)c1ccc(NS(=O)(=O)c2ccc(Br)s2)cc1 | inactive: -8.08% | – |
| Cc1cc(C)nc(NS(=O)(=O)c2ccc(NS(=O)(=O)c3ccccc3)cc2)n1 | inactive: 5.84% | – |

| SMILES | activity change, negative = inhibition | Potency |
| --- | --- | --- |
| O=C(NCCN1CCN(C(=O)c2cccc(Br)c2)CC1)C(=O)Nc1ccc(Br)cc1 | – | inconclusive [inhibitor, single point] |
| CCOc1ccc(NC(=O)c2ccc(-c3nc(COc4ccccc4)c(C)o3)cc2)cc1 | inactive: -16% | – |
| COc1ccc(C)cc1S(=O)(=O)N1CCN(S(=O)(=O)c2cc(C)ccc2OC)CC1 | – | inconclusive [inhibitor, partial curve, poor fit] |
| CC1=CN2C(=N)/C(=C/c3ccc([N+](=O)[O-])o3)C(=O)N=C2S1 | – | inconclusive [inhibitor, partial curve, poor fit] |
| COc1cc(NS(=O)(=O)c2ccc(NC(=S)NC(C)=O)cc2)nc(OC)n1 | inactive: 17.7% | – |
| S=C1NC[C@H](CC2CCCCC2)N1CC1CCCCC1 | – | active: 4.47 µM |
| CN(CC(=O)Nc1ccc(Cl)c(Cl)c1)C(=O)c1ccccc1SCC(=O)N1CCCC1 | – | inconclusive [inhibitor, single point] |
| O=C1NC(c2cccc(OCc3ccccc3)c2)Nc2ccccc21 (configuration not stated) | – | inconclusive [inhibitor, partial curve, poor fit] |
| COc1ccc(C(C(=O)NC(C)(C)C)N(CCC(C)C)C(=O)CCC(=O)Nc2cc(C)on2)cc1 (configuration not stated) | – | inconclusive [inhibitor, single point] |
| CCN(CCC(=O)Nc1cc(OC)cc(OC)c1)Cc1ccccc1 | – | inconclusive [inhibitor, partial curve, poor fit] |
| CC(C)OC(=O)CSc1nnc(CNc2ccc(Cl)cc2)n1Cc1ccccc1 | – | inconclusive [inhibitor, partial curve, poor fit] |
| CN(C)S(=O)(=O)c1ccc(Cl)c(C(=O)NNC(=O)Cn2ccc(C(F)(F)F)n2)c1 | inactive: -5.48% | – |
| Cc1cccc(NC(=S)NC2CCN(Cc3ccccc3)CC2)c1C | – | inconclusive [inhibitor, partial curve, poor fit] |
| O=C(Cc1ccccc1)Nc1sc2c(c1C(=O)Nc1ccc(Cl)cc1)CCCC2 | inactive: -15.3% | – |
| Cc1ccc(-c2noc(CN3C(C)CCCC3C)n2)cc1 (configuration not stated) | – | inconclusive [inhibitor, single point] |
| N=c1ccn(Cc2ccc(Cl)cc2Cl)cc1 | – | inconclusive [inhibitor, full curve, poor fit] |
| Cc1c(CN2CC[C@@H](N3CCN(c4ccccn4)CC3)[C@H](O)C2)[nH]c2ccc(F)cc12 | – | inconclusive [inhibitor, partial curve, poor fit] |
| COC(=O)c1cc2sc(C)cc2n1Cc1ccc(Br)cc1F | – | inconclusive [inhibitor, single point] |
| COC(=O)c1ccc(/C=C(\C#N)C(=O)NC(C)c2ccccc2)cc1 (configuration not stated) | – | inconclusive [inhibitor, partial curve, poor fit] |
| O=C(COc1ccc2c(c1)oc(=O)c1ccccc12)N[C@@H](Cc1c[nH]c2ccccc12)C(=O)O | inactive: -9.49% | – |
| COCCCNC(=O)[C@H](Cc1ccccc1)NC(=O)CC[C@H]1O[C@@H](n2ccc(=O)[nH]c2=O)[C@H](O)[C@@H]1O | inactive: 6.23% | – |
